Sequences and labels used below:
B1: LINE1-mini (parent)
chain: GGCAGAGCUCAACACAGCGUGGCAAAGUGGCUGUGGCUAGACUGCC

Among the data in the RNAGym collection of RNA variant scans (doi:10.7554/elife.90254) are self-cleavage values, retold here.

The source gives no read counts; variants with many changes may rest on few reads.

Variants of B1 are the subject of the series. Put plainly: self-cleavage, relative activity (ratio to wild type); higher = more cleavage; in vitro, sequencing; the parent is a self-cleaving ribozyme.
Take GGCAGAGAUCAACACAGCGUGGCAAAGCGGCUGUGGCGAGACUGCC: the self-cleavage came to 0.01.
Turning to GGCAGAGGUCGAUACAGCGUGGCAAUGUGGCUGUGGCUAGACUGCC, the self-cleavage amounted to 0.01.
Next, GGCAGAGGUCGACAGAGCGUGGCAAAGUGGCUGUGGCUAGACUGCC: 0.03; GGCAGAGAUCAACACAGCGUGGCAAAGUGGCUGUCGCUAGAUUCCC: 0.14; GGCAGAGAUCAACACAGCGUGGCAAAGUGGCGGUGACUAGACUGCC: 0.08.
Next, GGCAGAGACCAACACAGCGUGGCAACGUGGCUCUGGCUAGACUGCC: 0.05; GGCAGAGAUCAACACAGCGUGGCAAAGCGGCUGGGGCUAGACUGCC: 0.13; GGCAGAGAACAUCACGGCGUGGCAAAGUGGCUGUGGCUCGACUGCC: 0.05.
Next, GGCAGAGAACAACACAGCGUGGCAAUGCGGCUGUGACUGGACUGCC: 0.09; GGCAGAGAUCAACACAGCGUGGCAAAGUGGCUGUGUCUUGACUGCC: 0.05; GGCAGAGAGCAACACAGCGUGCCUAAGUGGCUGUGGCUAGACUGCC: 0.07.
With GGCAGAGACCAACACAGCGUUGUAAAGUGGCUGUGGCUAGACUGCC, the self-cleavage worked out at 0.26.
Then GGCAGAGGUCCACACAGCUUUGCAAAGUGGCUGUGGGUAGACUGGC, with 0; and GGCAGAGAGCAACACAGCGUGGCAAAGUGGCUGUGGCUAGACUGCA, with 0.02.
Take GGCAGAGAACAACACAGCGUGGCAAAGUGGAUGUGGCUAGACUUCC: the self-cleavage stood at 0.03.
Regarding GGCAGAGGUCACCACAGCGUGACAAAAUGGCUUUGGCUAGACUGCC, the self-cleavage stood at 0.01.
Take GGCAGAGAGCAACACAUCGUGGCAAAGUGGCUGUGGCUAGACUGCC: the self-cleavage worked out at 0.01.
Then GGCAGAGAUCAACACAGCGUGGCAAAGUGGCUGCCGCUAGACUGCC, with 0.05; and GGCAGAGGUCUACACAGCGUGUCAAAGUGGCGGUGGAUAGACUGCC, with 0.01; and GGCAGAGAUCAACACAGCGUGGCAAAGUGGCUGUAGCUAGUCUGCC, with 0.56.
Next, GGCAGAGAGCAACACAGCGUGGCAAAGUGGGUGUGGCUAGACUGCC: 0.03; GGCAGAGAUCAACACAGCGUGGCAAAGUGGCUGUUGCUACACUGGC: 0.06.
Next, GGCAGAGAUCAACACAGCGUGGCAAAGUGGCUGGGGAUAGACUGCC: 0.58; GGCAGAGAUCAACACAGCGUGGCAAAGUGGCUGGUGCUAGACUGCG: 0.1; GGCAGAGAUCAACACAGCGUGGCAAAGGGGCUGUUGCUAGACUGCC: 0.24.
For GGCAGAGACCAACACAGCCUGGCAAAGUGGCUGUGGCUAGACUGCC, the self-cleavage came to 0.05.
Next, GGCAGAGGUCCACAGAGCGUGGCAAAGUGGCUGUGGCUAGCCUGCC: 0.01; GGCAGAGACCAACACAGCGUGGCAAAGUGGCUGUGGCUAGACUCCC: 0.1; GGCAGAGGUCACCACAGCGUGGCAAAGUUGCUGUGGCUAGACUGGC: 0.01.
As to GGCAGAGAGCAACACGGCGUGGAAAAAUGGCUUUGACUAGACUGCC, the self-cleavage stood at 0.04.
Then GGCAGAGAUCAACACAGCGUGGCAAAGCGCCUGUGGCUAGACUGCC, with 0.04.
In the case of GGCAGAGAGCACCACAGCGUGGCAUAGUGGCUGUGGGUAGACUGCC, the self-cleavage came to 0.
Then GGCAGAGGUCUACACGGCGUGGCAAAGUGGCUGUGGCUAGACUGCU, with 0.01; and GGCAGAGGUCCACUCAGCGUGGCAAAGUGGCUGUGGCUAUACUGCC, with 0.06.
Turning to GGCAGAGAUCAACACAGCGUGGCAAAGUGGCUGUGGCAAGUCUGCC, the self-cleavage came out at 0.25.
Regarding GGCAGAGAUCAACACAGCGUGGCAAAGUGGCUGGCGCUAGACUUCC, the self-cleavage turned out to be 0.06.
Then GGCAGAGAUCAACACAGCGUGGCAAAGUGGCUGUGGCUAUACAGCC, with 0.14; and GGCAGAGAUCAACACAGCGAGGCGAAGUGGCUGUGGAUAGACUGCC, with 0.02; and GGCAGAGAUCAACACAGCGUGGCAAAGUGGCUGCGGCUAGACUGCA, with 0.03.
Next, GGCAGAGAUCAACACAGCGUGGCAAAGUGGCUGCGGCUAGACUGCG: 0.36; GGCAGAGAUCAACACAGCGUGGCAAAGUGGCUGCGGCUAGAUUGCG: 0.09; GGCAGAGAGCAACACAGCGUGGCAAAGUGGCUGUGGCGGGACUGCC: 0.05.
Next, GGCAGAGAGCAACACAGCUUGGCAAAUUGGCUCUGGCUAGACUGCC: 0.04.
With GGCAGAGAUCAACACAGCGUGGCAAAGUGGCUGUUGCUAGAUUGCC, the self-cleavage stood at 0.06.
Next, GGCAGAGGUCGAUAAAGCGUUGCAAAGUGGCUGUGGCUAGACUGCC: 0.03; GGCAGAGGUCCACACAGCGUGGCAAAGUGCCUGUGGCUAGACUGCG: 0.01.
Then GGCAGAGAUCAACACAGCGGGGCAAAGUGACUGUGGCUAGACUGCC, with 0.21; and GGCAGAGAGCAAGACAGCGUGGCAAAGUGGCUGUGGCUAGACUGCC, with 0.02.
Next, GGCAGAGAUCAACACAGCGUGGCAAAGUGGCUGUUGAUAGUCUGAC: 0.03; GGCAGAGAUCAACACAGCGUGGCAAAGUGGCUGUGCCUAGAAUGCC: 0.16; GGCAGAGAACAACACAGAGUGGCAAAGUGGCUGUGGCUACACUGCC: 0.06.
In the case of GGCAGAGAUCAACACAGCGUGGCAAAGUGGCAAUGGCUAGACUCCC, the self-cleavage came to 0.02.
Then GGCAGAGAUCAACACAGCGCGGCAAAGUGUCUGUUGCUAGACUGCC, with 0.08.
Next, GGCAGAGAACAACACAGCGUGGCACAGUGGCUGUGGCUAGACUGCC: 0.14; GGCAGAGAGCAACACAGCGUGGCAAAGUGGCUAUGGCUAGACUGCC: 0.03; GGCAGAGAACAACACAGCGUGGAGAAGUGGCUGUGGCUAGACUGCC: 0.08.
Turning to GGCAGAGAUCAACACAGCGUGGCAAAGUGGCUGCGGCUAAACUGCC, the self-cleavage worked out at 0.05.
Regarding GGCAGAGAUCAACACAGCGUGGCAAAGUGGCCGGGCCUAGACUGCC, the self-cleavage is 0.08.
Then GGCAGAGAUCAACACAGCGGGGCAAAGUGGCUGUGGCUAGACUGUC, with 0.16; and GGCAGAGGUCCACACAGCGUGGCAAAGUGGAUGUGGCUAUACUGCC, with 0.
Then GGCAGAGAUCAACACAGCGAGGCAAAGUGUCUUUCGCCAGACUGCC, with 0.07.
Next, GGCAGAGACCAACACAGCGUGGCUAAGUGGCUGUGGCUAGACUGCC: 0.14; GGCAGAGAUCAACACAGCGUGGCAAAGUGGCUAUGGCCAGACUGCC: 0.4; GGCAGAGAUCAACACAGCGUGGCAAAGUGGCUAUGGCAAGACUGCC: 1.21.
Turning to GGCAGAGGUCGACACAGCGUGGCAAAGUGGCAGUGGCUAGACAGGC, the self-cleavage turned out to be 0.01.
Next, GGCAGAGAUCAACACAGCGGAGCAAAGUGGCUGUGGCCACACUGCC: 0.16; GGCAGAGGUCUACACAGUGUGGCAAAGUGGCUGUGGCUAGACUGCC: 0.02; GGCAGAGAUCAACACAGCGCGGCAAAGUGGCCGUAGCUAGACUGCC: 0.09.
Consider GGCAGAGAACAACACAGCGUUGCAAAGUGGCUGUGGCUAGACUGCC, for which the self-cleavage worked out at 0.07.
Next, GGCAGAGGUCCACACAGCGUGGCAAAGUGGCUGUGGCUAAACUGCC: 0.01.
Regarding GGCAGAGAGCAACACAGCGUGGCAAAGUGGCUGUGGCUAGUCUGCC, the self-cleavage worked out at 0.04.
Next, GGCAGAGAACGACACAGCGUGGCAAAGUGGCCCUGGCUAGACUGCC: 0; GGCAGAGGUCCACACACCGUGGCAAAGUGGCUGUGGCUAGAGUCCC: 0.
As to GGCAGAGGUCGACACAGCGUGGAAAAGUGGCUGUGGCUAGACUGCC, the self-cleavage was 0.04.
Next, GGCAGAGACCAACACAGCGUGGCAAAGAGGCUGCGGCUAGACUGCA: 0.15; GGCAGAGACGAACACAGCUUGGCAAAGUGGCUCUGGCUAGACUGCC: 0.01; GGCAGAGACUAACACAGCGUGGCAAAGUGGCUGUGGCUAUACAGCC: 0.05.
Then GGCAGAGAUCAACACAGCGUGGCAAAGUGGCUUUGGCUAGAUUGCC, with 0.08; and GGCAGAGAUCAACACAGCGGGGCAAAGUAGCUGUGGCUAGACUUCC, with 0.36.
Then GGCAGAGAACAAAACAGCGAGGCAAAGUGGCUGUGGCCAGACUGCC, with 0.15.
Regarding GGCAGAGACCAACACAGCGUGGAAAAGUGGCUGUGCCUAGACUGCC, the self-cleavage was 0.03.
Next, GGCAGAGAACAACACAGCGUGGCAAAGUGGCUGAGGCUAGACUGCC: 0.09; GGCAGAGAACAACACAGCGUGCCAAAGUGGCUGUGGCUUUACUGCC: 0.12.
With GGCAGAGGUCGAAACAGCGUGGCAAAGUGGCUGUGGAUAGACUGCC, the self-cleavage was found to be 0.01.
With GGCAGAGAUCAACACAGCGUGGCAAAGUGGCUGUUGCUAGACUGCU, the self-cleavage was determined as 0.03.
With GGCAGAGAUCAACACAGCGUGGCAAAGUGGCUGCGGCCAGACUGCC, the self-cleavage is 0.19.
Next, GGCAGAGAUCAACACAGCGUGGCAAAGUGGCUCUGAUUAGACUGCC: 0.19.
Then GGCAGAGAACAACACGGCCUGGCAAAGUGGCUGUGGCUAGACUGCC, with 0.01.
With GGCAGAGACCAACACAGCGUGGAAAACUGGCUGUGGCUAGACUGCC, the self-cleavage came to 0.12.
Then GGCAGAGAACAACACAGCGUGGCAAAGUGGCUAUGGCUAGAGUGCC, with 0.07; and GGCAGAGGUCUACACAGCGUGGCAAGGUGGCUGUGGCUAGACUGCC, with 0; and GGCAGAGAACAACACAGAGUGGCAAAGAGGCUGUGGCUAGACUGCC, with 0.25.
Next, GGCAGAGAUCAACACAGCGUGGCAAAGUGGCUCUGGCUUGACUGCC: 0.11.
Then GGCAGAGAUCAACACAGCGUGGCAAAGUGGCUGUGAUUAGACUGCC, with 0.33.
On to GGCAGAGACCAACACAGCGUGGCAGCGUGGCUGUGGAUAGUCUGCC, for which the self-cleavage is 0.08.
Next, GGCAGAGACCAACCCAGCGUGCCAAAGUGGCUGUGGCUAGACUGCC: 0.06; GGCAGAGAUCAACACAGCGUGGCAAAGUGGCUUUGGCUAUACUGCC: 0.05.
Next, GGCAGAGAUCAACACAGCGUGGCAAAGUGGCUCUGUCUAGACAGAC: 0.01; GGCAGAGAUCAACACAGCGUGGCAAAGCAGCUGUUGCUAGACUGCG: 0.03; GGCAGAGAUCAACACAGCGCGGUAAAUUGGCUGUCGCGAGACUGCC: 0.17.
Next, GGCAGAGACGAACACAGCGUGGCGAAGUGGCUGUGGCUAGACUGCC: 0.03.
Turning to GGCAGAGAUCAACACAGCGCGGCAAAGUGUCUGUGGCUAGACUGCC, the self-cleavage was 0.08.
GGCAGAGAACAACACAGCGUGGCAAAGUGGUUGUGGCUAGACUGCC: the self-cleavage was 0.05.
Then GGCAGAGAUCAACACAGCGUGGCAAAGUGGCUGUACCUAGACUGCC, with 0.19; and GGCAGAGAUCAACACAGCGUGGCAAAGUGGCUCUGCCUAGACUGCC, with 0.07.
With GGCAGAGGUCGACACAGCGUGGCAAAGAGGCUGUGGCUAGACUGCC, the self-cleavage stood at 0.01.
Then GGCAGAGAUCAACACAGCGCGGCAAAGUGGACGUGGCUAGACUGCC, with 0.05; and GGCAGAGAUCAACACAGCGUGGCAAAGUGGCCGCGGCUUGACUGAC, with 0.29; and GGCAGAGAUCAACACAGCGUGGCAAAGUGGCUUUGGCUAGACUGGC, with 0.27.
Take GGCAGAGAUCAACACAGCGUGGCAAAGUGGCUUUGGCUAGACUGAC: the self-cleavage turned out to be 0.14.
As for GGCAGAGAACAACACAGCGUGGCAAAGUGGCUAUGGUUAGACUACC, the self-cleavage was found to be 0.23.
Then GGCAGAGAUCAACACAGCGUGGCAAAGGGGGUGAGGCUAGACUGCC, with 0.33.
